This is an account of results in US20230338510A1, “NOVEL C[…] EPITOPE P[…] AND USE THEREOF” (SHANGHAI INSTITUTE OF MATERIA MEDICA, CHINESE ACADEMY OF …, priority 2020, published 2023).

The subject of the assay is binding of RBD to ACE2. As to the kind of experiment: competitive ELISA: ability of antiserum to block the binding of RBD and ACE2. Conditions: antiserum of immunized cynomolgus monkeys; FIG. 9. As for the experimental part:
The neutralizing antibody was detected by competitive ELISA method, and the specific determination method is as follows: an ELISA plate was coated overnight with 10 µg/mL ACE2, and then blocked for use. The anti-peptide serum was diluted in different degrees with sample dilution buffer (1:128, 1:64, 1:32, 1:16, 1:8, and 1:4), then the diluted anti-serum in different degrees were incubated with Bio-RBD of 12 µg/mL at 37° C. for 1 hour. Then 100 µL of the reaction mixture was added into the wells of the blocked ACE2-coated ELISA plate, and incubated at 37° C. for 1 hour. Then the plate was washed, and HRP-Streptavidin A diluted in 1:10000 was added and incubated at 37° C. for 1 hour. After washing the plate, TMB was added for color development, and the plate was read at 450 nm wavelength after termination.

Regarding “AKFVAAWTLKAAAGGGGYGFQPTNGVGYQPGGGGNYLYRLFRKSNLKPF [LP2]”, the “ability of antiserum to block the binding of RBD to ACE2” value was “has the ability to block the binding of RBD to ACE2”.
